Test results taken from PubChem BioAssay AID1671188 (National Center for Advancing Translational Sciences (NCATS), 2021).
About 250 (0.25%) of roughly 100,000 compounds were called active. Inconclusive results, whose numbers are uncertain, are shown with a selection of clear calls. The call rests on the fitted dose curve; in most records, active means well fitted inhibition curve with a large enough effect; inconclusive means small, poorly fitted or top-dose-only effect; inactive means flat fitted curve, though single readings scatter. Potencies of inconclusive entries are left out as doubtful fits.

What follows are compounds tested against Alanine aminotransferase 2 (Homo sapiens) (UniProt Q8TD30) (assay: Primary qHTS assay for inhibitors of Glutamate pyruvate transaminase 2 (GPT2)). Conditions: Recombinant GPT2, coupled pyruvate oxidase/HRP Amplex Red fluorescence; series mostly up to 57.7 µM.
Procedure, shortened: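 Recombinant GPT2 (10ng/uL) with 250uM a-KG and 2mM L-alanine, 30 min at room temperature, in HEPES pH 7.5 buffer. Pyruvate detected by pyruvate oxidase/HRP/Amplex Red fluorescence after 30 min in the dark; AOA (50uM) as positive control.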
Further: nearly all actives have a fitted effect of over 60% in size.
Potency means the concentration at half of the fitted maximal effect; tags describe the fitted curve by direction and shape.

Sequence of UniProt Q8TD30 (Q8TD30 whole entry, looked up): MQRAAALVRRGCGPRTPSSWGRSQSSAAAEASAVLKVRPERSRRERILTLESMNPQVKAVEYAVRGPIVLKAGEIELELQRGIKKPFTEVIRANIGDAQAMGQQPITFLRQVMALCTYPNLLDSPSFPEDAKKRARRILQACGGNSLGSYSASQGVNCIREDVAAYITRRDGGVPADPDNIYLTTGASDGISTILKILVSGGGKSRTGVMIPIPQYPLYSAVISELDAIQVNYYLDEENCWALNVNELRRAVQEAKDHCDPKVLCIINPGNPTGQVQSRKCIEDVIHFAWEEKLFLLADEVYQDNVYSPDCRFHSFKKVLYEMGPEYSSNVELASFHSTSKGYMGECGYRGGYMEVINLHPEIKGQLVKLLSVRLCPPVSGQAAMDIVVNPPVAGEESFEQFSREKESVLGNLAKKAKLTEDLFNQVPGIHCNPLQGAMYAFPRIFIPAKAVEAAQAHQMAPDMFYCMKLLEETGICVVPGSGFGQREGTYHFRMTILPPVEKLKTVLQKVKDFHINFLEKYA

Row | SMILES | Potency
1 | COc1ccc(-c2cc(-c3cccc(CO)c3)cn3cncc23)cc1 | inactive
2 | O=C(NCC1Cn2cccc2C(=O)N1Cc1ccccc1)Nc1ccccc1F (configuration not stated) | inconclusive [inhibitor, single point]
3 | NC(=O)CN1CCC(c2nc(-c3ccc4nc[nH]c4c3)no2)CC1 | inconclusive [inhibitor, single point]
4 | O[C@H]1[C@H](NCc2ccco2)[C@H]2CO[C@H](O2)[C@@H]1N1CCCCC1 | inactive
5 | O=C1[C@@H]2C[C@@H](CN2Cc2ccc3ccccc3n2)Oc2ccccc2N1Cc1ccccc1 | inconclusive [inhibitor, full curve, poor fit]
6 | Cc1noc2c(-c3cn[nH]c3)cc(-c3cccc(C(F)(F)F)c3)nc12 | inactive
7 | COc1cc(-c2[nH]ncc2CN2CCCC2c2ccccn2)cc(OC)c1OC (configuration not stated) | inconclusive [inhibitor, partial curve, poor fit]
8 | CC(=O)c1cc(CN2CCOC(CCCc3ccccc3)C2)cs1 (configuration not stated) | inactive
9 | O=C(NC1CC(c2nnc(CO)n2C2CC2)C1)c1nc2ccccc2[nH]1 (configuration not stated) | inconclusive [inhibitor, partial curve, poor fit]
10 | N#Cc1ccc(NC(=O)Nc2ccccc2Br)c2n[nH]nc12 | inconclusive [inhibitor, single point]
11 | Cc1ccsc1[C@@H]1CCN(Cc2cccn2-c2cccnc2)C[C@H]1O | inconclusive [inhibitor, single point]
12 | COc1ccc(CCN2C(=O)O[C@@H]3CN(C(=O)NCc4ccccc4)C[C@@H]32)cc1 | inconclusive [inhibitor, single point]
13 | Cc1cc(C(=O)N2CCC(Cc3ccc(C(N)=O)cc3)CC2)n(C)n1 | inconclusive [inhibitor, single point]
14 | Cc1cnc(-c2ccccc2)n1CC1CCN(C(=O)C(C)c2ccccc2)CC1 (configuration not stated) | inactive
15 | COCC(=O)N(C1CCOCC1)C1CCN(C(=O)Cc2cccnc2)CC1 | inactive
16 | Cc1nn(-c2ccc(F)cc2)c(C)c1CNC(=O)C1NCCc2[nH]cnc21 (configuration not stated) | inconclusive [inhibitor, full curve, poor fit]
17 | COc1cc(F)ccc1-c1ccnc2nc(Cc3ccc(F)cc3)nn12 | inactive
18 | COc1ccc(C2Sc3ccccc3N(CCN(C)C)C(=O)C2OC(C)=O)cc1 (configuration not stated) | inconclusive [inhibitor, single point]
19 | CCn1cc(S(=O)(=O)N2CCC3(CC2)CC(OCC2CC2)CCO3)cn1 (configuration not stated) | inactive
20 | Cc1ccc(-c2c(C(=O)NC3CCCCC3)nc3sccn23)cc1 | inactive
21 | COc1ccccc1-n1c(=O)c(C(=O)Nc2cccc(Cl)c2)nc2cccnc21 | inactive

Row | SMILES | Potency
22 | CC(C)CCN1CCC(N2CCN(S(=O)(=O)c3ccc(F)c(Cl)c3)CC2)C1=O (configuration not stated) | inconclusive [inhibitor, full curve, poor fit]
23 | COc1ccc(F)cc1-c1cccc(C(=O)NCCN[S+](=O)([O-])c2c(C)noc2C)c1 | inactive
24 | Cc1cc(C)cc(C(=O)NC2CCN(c3cc(-c4cccs4)[nH]n3)C2)c1 (configuration not stated) | inconclusive [inhibitor, partial curve]
25 | O=C(CCc1ccccc1)N1CCC(N2C(=O)[C@H]3CN(Cc4ccccc4)C[C@H]3C2=O)CC1 | inconclusive [inhibitor, partial curve, poor fit]
26 | CCN1CCN(Cc2ccc(NC(=O)c3ccc(C)c(NC(=O)c4cncc(-c5cccs5)c4)c3)cc2C(F)(F)F)CC1 | inactive
27 | Cc1noc(C)c1-c1cn(C)c(=O)n2cc(COc3ccc(Cl)cc3)nc12 | inactive
28 | Cc1noc(-c2ccc(OC(F)(F)F)cc2)c1C(=O)NCc1ccsc1 | inactive
29 | NCc1cccc(-c2ccc(O)cc2)c1 | inconclusive [inhibitor, single point]
30 | COc1ccccc1C(=O)N1CCC2(CC1)COc1ccccc1C(=O)N2 | inconclusive [inhibitor, partial curve, poor fit]
31 | Fc1c(F)c(F)c(CN2CCCC3(CCNC3)C2)c(F)c1F (configuration not stated) | inconclusive [inhibitor, single point]
32 | COc1cncc(Nc2cnc3ccc(-c4ccccc4)nn23)c1 | inconclusive [inhibitor, partial curve, poor fit]
33 | C[S+](=O)([O-])c1cccc(-c2nnc3ccc(C(=O)NCC(F)F)cn23)c1 | inconclusive [inhibitor, single point]
34 | COc1cc2c(cc1O)NC(=O)CC2c1cn[nH]c1-c1cc(C)ccc1C (configuration not stated) | inconclusive [inhibitor, single point]
35 | COC1CCC12CCN(C(=O)Cc1ccccc1)CC2 (configuration not stated) | inconclusive [inhibitor, full curve, poor fit]
36 | COc1cccc(OC)c1C(=O)N1C(C(=O)NCC(C)C)COC12CCCC(C)C2 (configuration not stated) | inactive
37 | COC1=CC(=O)C[C@@H](C)[C@]12Oc1cc(OC)cc(OC)c1C2=O | inconclusive [inhibitor, partial curve, poor fit]
38 | O=C(c1ccc(-c2ccc(N3CCCCCC3)nc2)cc1)N1CCCC1 | inactive
39 | CC1CCC(NC(=O)c2noc(-c3ccccc3F)n2)CC1 (configuration not stated) | inconclusive [inhibitor, single point]
40 | NC(=S)c1ccc[n+]([C@@H]2O[C@@H](COP(=O)([O-])OP(=O)(O)OC[C@H]3O[C@@H](n4cnc5c(N)ncnc54)[C@H](OP(=O)(O)O)[C@@H]3O)C(O)C2O)c1 (some centres not stated) | inconclusive [inhibitor, single point]
41 | CN(C)c1cccc(C(=O)NCC2CCN(c3cc(-c4ccc(Cl)cc4)[nH]n3)CC2)c1 | inconclusive [inhibitor, single point]
42 | CCOc1ccccc1CN1CCC2(CCN(C(=O)c3ccccc3Cl)CC2)Oc2ccccc21 | inconclusive [inhibitor, single point]
